Reference: publication PMC6212790
The list shows a part of the results. At the low end of the ranking the order means little.
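Note: rank score from −0.5 (least bound) to 0.5 (best bound).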

These sequences were tested against T1, GST-Rok (full length) (UniProt O34857) (assay: protein binding microarray). Details: Rok is a gene silencer of Bacillus subtilis; high values mean tight binding; most listed sequences are background and not binding sites; double strand, one strand shown.
T1 sequence: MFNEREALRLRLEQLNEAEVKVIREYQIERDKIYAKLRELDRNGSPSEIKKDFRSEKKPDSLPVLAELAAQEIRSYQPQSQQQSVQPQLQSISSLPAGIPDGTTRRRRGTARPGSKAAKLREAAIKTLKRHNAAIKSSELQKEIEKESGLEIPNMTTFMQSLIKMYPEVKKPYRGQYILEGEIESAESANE
GGCCGGTA was tested, and the binding signal was 0.00749 E-score. AAATTGTA gave a binding signal of 0.236 E-score. Sequence CCCGCGAG has a binding signal of -0.31 E-score. AATATCCC showed a binding signal of 0.001 E-score. AGTGTGTG showed a binding signal of -0.116 E-score. In the case of ATTGTCAG, the binding signal is reported as 0.0457 E-score. ACATTGTG gave a binding signal of 0.0964 E-score. Work on ACGTCCAC yielded a binding signal of -0.245 E-score. With CGTGTACA the binding signal was 0.0725 E-score. Sequence ATGTGATA has a binding signal of 0.214 E-score. With AAAAGATG the binding signal was -0.2 E-score. AACTTTGC gave a binding signal of 0.101 E-score. In the case of CGCTTGAG, the binding signal is reported as -0.15 E-score. Sequence CCATCGCC has a binding signal of -0.123 E-score. CACTTGAC gave a binding signal of -0.0272 E-score. GATCTAAC showed a binding signal of 0.12 E-score. With AAAATTAG the binding signal was 0.198 E-score. CGGTGGAG was tested, and the binding signal was -0.216 E-score. For GGGTCGTA, the binding signal was -0.203 E-score. Sequence CAACTTCC has a binding signal of -0.033 E-score. For GCCTAAAA, the binding signal was -0.232 E-score. ACCACTAC gave a binding signal of 0.207 E-score. In the case of ATGTAAAG, the binding signal is reported as 0.221 E-score. In the case of CTACCACA, the binding signal is reported as 0.272 E-score. Sequence CGTTGGAA has a binding signal of -0.145 E-score. In the case of GAACTAGC, the binding signal is reported as 0.176 E-score. For ACCTATTG, the binding signal was 0.182 E-score. Sequence ATGGCTTA has a binding signal of 0.0565 E-score. CCCTTTCG was tested, and the binding signal was -0.336 E-score. In the case of ACCAAGGC, the binding signal is reported as -0.25 E-score. Sequence CAGACATG has a binding signal of -0.129 E-score. Sequence CAGTTGAC has a binding signal of 0.17 E-score. ATGCCACC was tested, and the binding signal was -0.16 E-score. For ACTGTGGC, the binding signal was -0.128 E-score. CCCTAATC gave a binding signal of -0.127 E-score. In the case of CAATCCAC, the binding signal is reported as -0.149 E-score. With AGCCTACA the binding signal was 0.0088 E-score. With GGATAGGA the binding signal was 0.0101 E-score. TGACATCA gave a binding signal of -0.0354 E-score. GGCCTCCA showed a binding signal of -0.321 E-score. With AAACCGTC the binding signal was 0.0453 E-score. For AAAGCCAG, the binding signal was -0.172 E-score. In the case of GTAGCACA, the binding signal is reported as 0.19 E-score. Sequence CGTTTAAA has a binding signal of -0.098 E-score. With GACAGTGC the binding signal was -0.283 E-score. AACGCTCT showed a binding signal of -0.196 E-score. CGCGTTCA gave a binding signal of 0.0173 E-score. With CTTGCTTC the binding signal was -0.22 E-score. GGGCGGAC gave a binding signal of -0.381 E-score. AACGTCCA showed a binding signal of -0.291 E-score. ACGAATAA showed a binding signal of 0.0598 E-score. With AAAGACGA the binding signal was 0.109 E-score. Sequence GAACGTTC has a binding signal of -0.0316 E-score. In the case of CGACTGCC, the binding signal is reported as -0.213 E-score. CGGGCTGC was tested, and the binding signal was -0.227 E-score. GGCGTACC showed a binding signal of -0.127 E-score. CTCTCAGC was tested, and the binding signal was -0.189 E-score. ACTCTCTA gave a binding signal of -0.0619 E-score. CGGATGAG showed a binding signal of -0.112 E-score. With ACCGATAC the binding signal was 0.117 E-score. For CTGAGTGA, the binding signal was -0.0653 E-score. GCAATGTA gave a binding signal of 0.23 E-score. With GAGCAGAC the binding signal was 0.00267 E-score. Sequence CAGAGCGG has a binding signal of -0.22 E-score. Work on AATTCAAC yielded a binding signal of 0.101 E-score. With ATGGAATC the binding signal was 0.0396 E-score. ACGAACTC showed a binding signal of -0.0653 E-score. With AATGCTTG the binding signal was 0.0753 E-score. Sequence AGGAGATC has a binding signal of -0.0442 E-score. In the case of CTTGAGGC, the binding signal is reported as -0.242 E-score. AGATCGCC gave a binding signal of -0.217 E-score. CAAAAGAC was tested, and the binding signal was 0.0115 E-score. GGAGTGCC was tested, and the binding signal was -0.363 E-score. ATTTTGAA was tested, and the binding signal was 0.162 E-score. Sequence GCACCTTA has a binding signal of 0.0802 E-score. With AGAAAGGG the binding signal was -0.227 E-score. GTGTCAGA gave a binding signal of -0.329 E-score. CGATATAC gave a binding signal of 0.239 E-score. Work on CGCTCCCG yielded a binding signal of -0.429 E-score. CCAGCTCG showed a binding signal of -0.12 E-score. AGCGTTTG gave a binding signal of 0.129 E-score. GCAATTCC showed a binding signal of 0.0301 E-score. With ATTTGGCG the binding signal was -0.0657 E-score. ACACAGGG showed a binding signal of -0.156 E-score. Work on CGACTCGA yielded a binding signal of -0.107 E-score. GAATATCA showed a binding signal of 0.18 E-score. ACTCGCCG was tested, and the binding signal was -0.221 E-score. In the case of CCAATTCC, the binding signal is reported as 0.114 E-score. GCATGTGA gave a binding signal of -0.0268 E-score. Work on GTCCAGGA yielded a binding signal of -0.143 E-score. ACTATACG showed a binding signal of 0.0122 E-score. CTAGGAAG gave a binding signal of -0.0907 E-score. Work on TCGGAGCA yielded a binding signal of -0.134 E-score. ATCGCTCG showed a binding signal of -0.134 E-score. ACCTAACG showed a binding signal of 0.0856 E-score. For AGATGCTA, the binding signal was 0.168 E-score. For CAACGACC, the binding signal was -0.117 E-score. AGCTTCCT showed a binding signal of 0.0336 E-score. Work on AAAACTAA yielded a binding signal of 0.254 E-score. With CCGCGAGC the binding signal was -0.199 E-score. In the case of ACAGCGGC, the binding signal is reported as -0.195 E-score. Sequence AATCGTGC has a binding signal of -0.118 E-score. With ACTTCCTG the binding signal was 0.0887 E-score. GAACGGTC was tested, and the binding signal was -0.186 E-score. ACCGACAA showed a binding signal of 7.41e-05 E-score. With CGGCTTAG the binding signal was -0.158 E-score. GTCGGTCA showed a binding signal of -0.0647 E-score. Sequence CGCTGACC has a binding signal of -0.125 E-score. Sequence CTCTGTCA has a binding signal of -0.331 E-score. ATGGGCTG was tested, and the binding signal was -0.299 E-score. For CCCCACAG, the binding signal was -0.362 E-score. In the case of ACACCTCT, the binding signal is reported as 0.138 E-score. CCGATTAA showed a binding signal of 0.06 E-score. Work on GCACGGAC yielded a binding signal of -0.272 E-score. For GAGACCAA, the binding signal was -0.215 E-score. For GCATAATA, the binding signal was 0.246 E-score. In the case of ATATGTCC, the binding signal is reported as 0.0624 E-score. With GCCTACCC the binding signal was -0.247 E-score. With AAGCCCGT the binding signal was -0.219 E-score. For AGGGAATC, the binding signal was 0.0103 E-score. AGTGACGC gave a binding signal of -0.0528 E-score. Sequence GCCTTTAA has a binding signal of -0.178 E-score. CTAGCCAA was tested, and the binding signal was 0.139 E-score. AAATGAGT was tested, and the binding signal was 0.0798 E-score. AGTATTCA gave a binding signal of 0.223 E-score. Sequence CGCGACAC has a binding signal of -0.185 E-score. For AGGAACGA, the binding signal was -0.0324 E-score. In the case of ACACTCCC, the binding signal is reported as -0.189 E-score. Work on CTACCACC yielded a binding signal of 0.319 E-score. For CGTGAAAG, the binding signal was -0.0185 E-score. Work on CTGCCGAC yielded a binding signal of -0.228 E-score. With CTGATCCA the binding signal was -0.0343 E-score. Sequence GACGAAGC has a binding signal of -0.195 E-score. For AATCGTAT, the binding signal was 0.186 E-score. In the case of ATGGCGCC, the binding signal is reported as -0.23 E-score. In the case of CCAGCCTC, the binding signal is reported as -0.345 E-score. AGTAAGCC gave a binding signal of -0.0605 E-score. Work on CATCGATC yielded a binding signal of 0.112 E-score. In the case of TCCCGAAA, the binding signal is reported as -0.0156 E-score. Sequence CGCAGTCA has a binding signal of -0.164 E-score. AGGGTCCA gave a binding signal of -0.281 E-score. With CCCCGAGC the binding signal was -0.392 E-score. AGTAGTAT showed a binding signal of 0.405 E-score. Work on AACAGCGA yielded a binding signal of -0.132 E-score. In the case of GCTCCTCC, the binding signal is reported as -0.29 E-score. Work on GAAAGACA yielded a binding signal of -0.0829 E-score. TCAGAGGA showed a binding signal of -0.18 E-score. GTTTGATA showed a binding signal of 0.199 E-score. CATCTTCG showed a binding signal of -0.101 E-score. In the case of ACAATTTA, the binding signal is reported as 0.312 E-score. With CCAGTTCA the binding signal was -0.0639 E-score. Work on GCCTGCCA yielded a binding signal of -0.218 E-score. Sequence GTTGATCA has a binding signal of -0.00765 E-score. AGCTCCCA gave a binding signal of -0.14 E-score. GCCTATGA gave a binding signal of -0.082 E-score. With GACACAAC the binding signal was -0.191 E-score. CCCGTGCA showed a binding signal of -0.123 E-score. In the case of CTACTCGA, the binding signal is reported as 0.179 E-score. TCATTCCA showed a binding signal of -0.0989 E-score. GGAGCCCC gave a binding signal of -0.423 E-score. GCGCAAGA showed a binding signal of -0.189 E-score. CCCTACCA gave a binding signal of -0.0569 E-score. CACACCAC was tested, and the binding signal was -0.0248 E-score. In the case of CAGGCGGA, the binding signal is reported as -0.216 E-score. Sequence GTCGGATA has a binding signal of 0.0954 E-score. ACATTCTG was tested, and the binding signal was -0.0723 E-score. Sequence AATATGTG has a binding signal of 0.248 E-score. CACGGAAG gave a binding signal of -0.018 E-score. Sequence ATCAAATG has a binding signal of -0.0553 E-score. AGGCTACA gave a binding signal of -0.00954 E-score. Work on AAATCTTC yielded a binding signal of 0.0578 E-score. With CTCGATCC the binding signal was -0.00475 E-score.
